This is one part of the list.
system: PfHDP1 homeodomain (GST-tagged); test: gcPBM binding intensity (ln(normalized median fluorescence intensity)); higher = stronger DNA binding
Method in brief: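 The highest Masliner-normalised natural-log median intensity across replicate spots of either probe orientation is reported as binding intensity. GST-tagged P. falciparum DNA-binding domains expressed in E. coli were applied for 1 h to an Agilent 4 × 180k array of primer-extended double-stranded 36-bp intergenic genomic probes plus negative controls, and bound protein was detected with Alexa488 anti-GST antibody and scanned at 488 nm.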

Row | Sequence | gcPBM binding intensity (ln)
1 | ATCATTTTTAAAGGAACACACAAAAAAAATTAAAAT [CACACA_site4878] | 6.76
2 | ACATATATTATTATATGTACATATATTAATTATATA [XGTACX_site3400] | 6.34
3 | ACTCTCTTATATTAAACACACATATATATCTGTATA [CACACA_site5489] | 7.04
4 | GTAAAATATATAAAATGTACATATATTATATATATA [XGTACX_site489] | 7.4
5 | TTTCTTTATTAAAATATTTTACATATATAATATACG [TGCATGCA_negctrl_site564] | 6.98
6 | CATTTAAAAGATAAAACACACATACTAATAAAAAAC [CACACA_site5417] | 7.17
7 | TATTTCAATATATACCTTTGCTTTTTTAATATACTT [XGTACX_negctrl_site556] | 6.42
8 | AATATAAATAAAAACACACACAATGGTACCTATATA [CACACA_site7688] | 6.79
9 | TCAATATAAATTAGTTGTACAGTTTTTTTTAATTAT [XGTACX_site6358] | 6.2
10 | AGAATACATATATGAACACACAGAGTTTTAAAAAAT [CACACA_site2735] | 6.76
11 | TTTAAATAATCTAGGTGTACTTTCCTTTATAAATGT [XGTACX_site7859] | 6.07
12 | AAAAAATCACGACACACACACACACTAAAAAAAAAA [CACACA_site6792] | 6.76
13 | ATCAAATAATAGCAAACACACAAAAAATAAAAAAAA [CACACA_site4146] | 6.33
14 | AATGTTTTTTTTTTTTTTTTTTTTTATTTATTGTTA [CACACA_negctrl_site505] | 6.1
15 | ATTTTTTGGAAAAGAAGTACAATGGATTTATACGTT [XGTACX_site891] | 6.19
16 | TAACATATAATATTATGTACATATATACATATATAA [XGTACX_site7467] | 6.33
17 | TATAACATAATATAGACACACACATGTACTTATGCC [CACACA_site8547] | 6.37
18 | CACTACATTATGTCATAAATGCATACATAAACATAT [GTGCAC_negctrl_site513] | 6.66
19 | TTTATATTTCAATTTTGTGCTTCGCAAATTGAGAGG [TGCATGCA_negctrl_site327] | 6.13

Row | Sequence | gcPBM binding intensity (ln)
20 | TATTTGTTTGAATTTTTTTTTTTTTTTTTTTATGTG [CACACA_negctrl_site966] | 5.89
21 | TACAGACAGAAATGCACACACATATATATATATATA [CACACA_site2283] | 9.96
22 | GAAAAGCATAGATGCACACATATATATATATATATA [CACACA_site2169] | 9.77
23 | GTGTTAATTTTAAATTGTACAAAATTTATATGATTT [XGTACX_site348] | 6.4
24 | ATTTTTATACGTTTTTTTTTTTTTTTTTTTTATTTA [CACACA_negctrl_site1142] | 6.05
25 | ATTAATTTTGGTTCATGTACATAAGAAATAAACTCT [XGTACX_site4534] | 6.48
26 | TTACACATATATATAAATATATATAAATATATATAT [CACACA_negctrl_site150] | 7.39
27 | AAAATATATGAAAACAGTACATATAAAAATTAAAAA [XGTACX_site2594] | 6.41
28 | ATATACTTTTTTTTTTTTTTTTTAACGTTATTTATG [CACACA_negctrl_site1277] | 6.13
29 | AAGAAAGACATTACGTGTACCAAACAACCTACCAAC [XGTACX_site4219] | 6.79
30 | AAAATTAAACTCACACCACACACAAAAAAAAAAAAA [CACACA_site8131] | 6.32
31 | ATGTATATGTCTATATGTACTTATATTTTATTTTTT [XGTACX_site5902] | 6.17
32 | TGTTTTATCTTATATGCACACGATAAAAAAAAAAAA [CACACA_site2674] | 9.7
33 | TTACAAGTAAAAGGTACACACATTATAAATACAAAT [CACACA_site4752] | 6.93
34 | ATATATTTTAATTGTTGTACATATTAAATAAATAGG [XGTACX_site2311] | 6.54
35 | ATTTTTTTTTTTTATAGTGGATCCACATTTGCCATT [CACACA_negctrl_site1284] | 6.47
36 | TATATTTTATATATGGTGCAACTTTTATTTAAATAA | 10.7
37 | ACATAAATATAAACGTGTACATATATAAATATATAT [XGTACX_site7293] | 6.5
38 | CATATATAAAAAAACACACACATATATATATATATA [CACACA_site1195] | 9.25

Row | Sequence | gcPBM binding intensity (ln)
39 | CCCACAGACGGACACACACACACACCGACACATATA [CACACA_site4356] | 7.01
40 | TTTTGTGCTTAAAAAAGTACAAAATATAAAAAAAAT [XGTACX_site7876] | 6.47
41 | TGCAGTCTGGAGAAACGTACACAGTATCTGGTAACC [XGTACX_site2543] | 6.02
42 | TTCTATTTTAATATCTGTACATAATAAAGATCCATT [XGTACX_site1142] | 6.3
43 | AAAATTGAACCTGACAAGGTATTTTATTATTTATTA [TGCATGCA_negctrl_site181] | 5.78
44 | AGTTTTTATAAAAATAGTACATATTTATTAATCTGT [XGTACX_site5881] | 6.06
45 | CATTATTCATTTTGGATGCACTGACAGAAAAATGGT | 7.62
46 | ATGCTCAGGAAAACATGTACAAAATTATTTGTTATA [XGTACX_site4306] | 6.36
47 | TGAGTACACAATAATACATGCAATTCCTATGAATAT [TGCATGCA_site851] | 6.72
48 | ATAAATATTAAAAGTACACACAGATACACTAATTAT [CACACA_site1808] | 6.79
49 | ATATGACATAAAACATGTACATGTTCATAAATATAT [XGTACX_site1923] | 6.71
50 | TACACTTTTTATGAAGTGCATGTATAGCTCTTAAAA [GTGCAC_site9595] | 7.25
51 | ATTTACATAATAAAATGTACATTTATAAATATTATA [XGTACX_site1901] | 6.36
52 | ATAAACATATAAAAAGTGCATATTCATATATCTACT | 6.98
53 | AATACACTAAACAAAAGTACAAAAATATTCTACAAA [XGTACX_site5162] | 6.22
54 | ATGGCCTCATTTGGGACACACAACATAAAATATATA [CACACA_site753] | 6.65
55 | AAATATATTTTATGTACACACAAAATTAAGGGATAT [CACACA_site4881] | 6.75
56 | TGTTAATTATAAATTTGTACTTATTTTTACAAAATA [XGTACX_site6598] | 6.48

Source: the supplement of paper PMC11417369
